Test results published in PubChem BioAssay AID1345083 (National Center for Advancing Translational Sciences (NCATS), 2018).
The campaign covered roughly 94,000 compounds. About 6,200 (6.6%) were called active. Inconclusive means that the source gave no clear call. Such entries were picked first, then a sample of the others. The call rests on the fitted dose curve; in most records, active means well fitted inhibition curve with a large enough effect; inconclusive means small, poorly fitted or top-dose-only effect; inactive means flat fitted curve, though single readings scatter. A potency beside an inconclusive call is a rough fit, not a confirmed value.

Assay: Cytotoxic Profiling in HEK 293 Cell Line of Diverse Libraries Using Quantitative High-Throughput Screening; further: nearly all actives have a fitted effect of over 60% in size
Conditions: HEK 293 viability, ATP luminescence (CellTiter-Glo), 48-72 h; series mostly up to 115 µM
In short: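 Luminescence from cellular ATP, measured with CellTiter-Glo, indicates HEK 293 viability. Cells plated at 250 cells/well are treated with compound for 48 or 72 hr at 37 degree Celsius before reagent addition.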
Potency means the concentration at half of the fitted maximal effect; tags describe the fitted curve by direction and shape.

SMILES	Potency
C=CCOc1c(OC)ccc2c1CN(C1CC1)C(=O)CCN2C[C@@H](O)COCc1ccccc1	inconclusive: 79.4 µM [inhibitor, partial curve, poor fit]
O=C(Nc1ccccc1)O[C@@H]1CO[C@H]2[C@@H]1OC[C@@H]2NC(=O)C1CCC1	inconclusive: 89.1 µM [inhibitor, partial curve]
Cc1noc(-c2cccc(OC3CN(C(=O)Nc4ccccc4)C3)c2)n1	inconclusive: 89.1 µM [inhibitor, single point]
O=C(NCc1cccc(Cl)c1)c1ccc2nnc(C3CC3)n2c1	inactive
COc1ccccc1Nc1ccnc(N2CCC(N[S+](=O)([O-])c3ccc(C)cc3)CC2)n1	active: 31.6 µM
O=C(c1ccc(F)cc1Cl)N1CCC2(CC1)NC(=O)N(c1ccccc1Cl)N2	inconclusive: 44.7 µM [inhibitor, partial curve]
CC(=O)NC1(C)CCN(Cc2cccc(-c3cccc(Cl)c3)c2)C1 (stereo unspecified)	active: 79.4 µM
C[C@]1(CO)[C@H]2Cc3sc(NC(=O)c4ccnc(Cl)c4)nc3[C@@H](CC(=O)NCc3ccco3)[C@]2(C)CC[C@H]1O	inconclusive: 89.1 µM [inhibitor, partial curve, poor fit]
CCNC(=O)C1C(c2cccc(NC(=O)Cc3ccccc3)c2)OC(=O)N1Cc1ccc(C)cc1 (stereo unspecified)	inconclusive: 89.1 µM [inhibitor, single point]
COc1ccc(C(=O)N[C@@H]2CN(Cc3ccncc3)C[C@H]2CN(C)C)c(OC)c1	inconclusive: 50.1 µM [inhibitor, partial curve, poor fit]
Cc1ccccc1-n1cc(-c2ccnc(NC(C)Cc3ccncc3)n2)cn1 (stereo unspecified)	active: 35.5 µM
c1ccc(-c2cn([C@H]3CO[C@H]4[C@@H]3OC[C@@H]4NCC3CCCCC3)nn2)nc1	inconclusive: 31.6 µM [inhibitor, partial curve, poor fit]
CCC(=O)N1CCc2c(C(=O)NCc3ccc(OC(C)C)cc3)cccc21	inconclusive: 89.1 µM [inhibitor, single point]
CC(=O)N1CCN(C(=O)c2ccc3c(c2)NC(C)(CNc2ccccc2)CO3)CC1 (stereo unspecified)	inconclusive: 112 µM [inhibitor, partial curve, poor fit]
Cc1cncc(C(=O)N2CCC3(CC2)CN(C2CCC2)CC3CO)c1 (stereo unspecified)	inconclusive: 89.1 µM [inhibitor, partial curve, poor fit]
Cc1ccccc1C(=O)N1CCC2(CC1)NC(=O)N(c1ccccc1)N2	inconclusive: 25.1 µM [inhibitor, full curve]
